The record followed here is ChEMBL document CHEMBL1157539, “Thousands of chemical starting points for antimalarial lead identification” (Nature, 2010).

The full ranking holds about 13,000 compounds; the median of “IFI” is about 4, and the highest 2% start at about 17. The list shows a part of the results.

The nature of the assay: GSK_TCMDC: Inhibition Frequency Index (IFI). The number of non-kinase HTS assays where a compound showed > 50 % inhibition, expressed as a percentage of the number of such assays in which the compound was tested (-0 is zero). The format is functional.
Consider `CCc1c(CCNCCCCCCNCCc2ccccc2)ccc(OC)c1OC`, for which the IFI was found to be 3.52%.
`O=C(O)c1cccnc1Sc1ccc(Cl)cc1` returned an IFI of -0%.
For `Cc1cccc(C(=O)Nc2ccnc(N(C)CCCN(C)Cc3cccc(C#N)c3)c2)c1`, the IFI was found to be 0%.
With `Cc1cc(NC2CCN(CC3CCCCC3)C2)nc(Nc2ccc(Cl)cc2)n1` (stereo not drawn), the IFI came to 7.69%.
Take `Cc1ccc(NC(C)C(=O)Nc2ccc(C#N)cc2)cc1S(=O)(=O)N1CCCCC1` (stereo not drawn): the IFI is 1.37%.
In turn, `c1ccc(CCNc2ccnc(Nc3ccc4cn[nH]c4c3)n2)cc1` came in with an IFI of 3.45%.
`OC(CNC1CCCCC1)Cn1c2ccc(I)cc2c2cc(I)ccc21` (stereo not drawn) showed an IFI of 4.9%.
In the case of `COc1ccc2[nH]c(-c3ccccc3)cc(=NN=Cc3ccncc3)c2c1`, the IFI came out at 2.11%.
In turn, `COc1cccc(CCc2nc3c(N4CCC(Cc5ccccc5)CC4)cccc3n2CC2CNCCO2)c1` (stereo not drawn) gave an IFI of 6.08%.
The figure for `COc1ccc(NC(=O)Nc2ccc(-c3ccccc3)cc2)cc1Cn1cnc(N2CCCNCC2)cc1=O` is 4.83%.
In the case of `CCOc1cc(Cc2cnc(N)nc2N)cc(OCC)c1OCCCCC(=O)OC`, the IFI was -0%.
In the case of `CN1CCN(CCCN(Cc2cccc(-c3ccc(CNC4CCCC4)cc3)c2)C(=O)/C=C/c2ccccc2)CC1`, the IFI turned out to be 8.82%.
For `Cc1ccc(CN2CCN(CC(O)COc3ccc4c(c3)CCC4)CC2)cc1` (stereo not drawn) the value was 2.99%; for `COc1ccc2c(c1)CCCC2C(C)NCC(O)c1cccc(C(F)(F)F)c1` (stereo not drawn), 1.43%; for `Cc1nc2ccccc2n1C1CC2CCC(C1)N2CCC1(c2ccccc2)CCN(C(=O)Nc2ccc(C(F)(F)F)cc2)CC1` (stereo not drawn), 1.4%.
The compound `Cc1cc(NS(=O)(=O)c2cccc(C(C)N3CCC(N4CCCC4)CC3)c2)ccc1C(C)C` (stereo not drawn) registered an IFI of 13.1%.
Consider `CN(C)CC(=O)Nc1ccc(-c2ccc3ccnc(N)c3c2)cc1`, for which the IFI was found to be 7.95%.
For `COc1ccc2ncc(F)c(CCN3C[C@H](CNCc4cc(C#N)c5c(c4)OCCO5)[C@H](O)C3)c2n1` the value was 3.85%; for `NC(=O)c1cccc(Nc2nccc(Nc3ccc(Oc4ccc5ccccc5c4)cc3)n2)c1`, 6.87%; for `Cc1csc(-c2nonc2NC(=O)COc2ccccc2C(C)C)n1`, -0%.
`Cc1ccc(CN2CCC(C(=O)Nc3ccc(-c4cc5ccccc5[nH]4)cc3)CC2)o1`: the IFI was -0%.
The figure for `C=CCC1OC(=O)c2cc(OC)cc(OC)c21` (stereo not drawn) is 33.6%; for `CCCCCCCn1c(=N)n(CC(O)c2ccc(Cl)c(Cl)c2)c2ccccc21` (stereo not drawn) it is 17.6%.
For `N=C1SC(=Cc2cn[nH]c2-c2ccc(F)cc2)C(=O)N1c1nccs1`, the IFI worked out at 2.07%.
The figure for `O=C(Nc1cccc(CN2CCN(C(=O)c3ccccc3)CC2)c1)c1ccco1` is 1.52%.
The figure for `CC[C@H](C)CNC(=O)c1cccc(-c2ccc(CN3CCC(N4CCCC4)CC3)cc2)n1` is 9.09%; for `Cc1ccc(CN(Cc2ccc(C(=O)N(C)C)cc2)Cc2ccc3c(c2)OCCO3)cc1C` it is 2.11%.
`O=C(Cc1c[nH]cn1)Nc1cccc(-c2cccc(-c3nc4cc(C(F)(F)F)ccc4[nH]3)c2)c1` gave an IFI of 10.8%.
For `O=S(=O)(Nc1ccc(CCN2CCCCC2CCN2CCCC2)cc1)c1ccc(-c2ccccc2)cc1` (stereo not drawn) the value was 14.1%.
As to `CN(C)Cc1c(O)ccc2oc(Cc3ccccc3)cc12`, the IFI amounted to 5.49%.
The figure for `COc1ccc(N2C(N)=NC(N)=NC2(C)C)cc1` is 0.74%; for `N#Cc1cccc(C(=O)Nc2cccc(-c3ccc(CN4CCC(O)CC4)cc3)c2)c1` it is 0.98%; for `O=C(Nc1ccc(-c2nc3ccccc3[nH]2)cc1)C1CCCN(CC2CC2)C1` (stereo not drawn) it is 2.38%.
On to `CC(=O)Nc1ccc(C(=O)NC2CCN(c3ccnc4cc(Cl)ccc34)CC2)cc1`, for which the IFI was 0%.
For `COc1ccc(C(=O)NC(Nc2ccc([N+](=O)[O-])cc2)C(Cl)(Cl)Cl)cc1` (stereo not drawn), the IFI turned out to be 13.4%.
The compound `CCOC(=O)c1ccc2[nH]c(-c3ccc(C(=O)NCc4ccc(C(C)(C)C)cc4)cc3)nc2c1` yielded an IFI of 1.45%.
`Cc1ccc(C(=O)Nc2cccc(-c3ccc(N4CCN(C)CC4)nn3)c2)cc1[N+](=O)[O-]`: the IFI came to 1.89%.
On to `O=C(NCCCCCN1CCC(c2c[nH]c3ccccc23)CC1)c1ccc(-c2ccccc2)nc1`, for which the IFI came to 4.44%.
`CC(C)(C)c1nn(-c2ccccc2)c2[nH]c(=O)c(CNC3CCCC3)cc12` displayed an IFI of 0.78%.
Compound `O=C(Nc1ccc(Cn2ncc(N3CCCNCC3)c(Cl)c2=O)cc1)Nc1ccc(C(F)(F)F)cc1` registered an IFI of 11.8%.
Regarding `COc1cc(Cc2cnc(N)nc2N)cc(OC)c1OCCCCC(=O)O`, the IFI was 1.5%.
`COc1cccc(Nc2nc(Nc3cccc(C#N)c3)cc(-c3ccncc3)n2)c1` displayed an IFI of 0%.
With `O=C(Nc1ccc(N2CCCCC2)c(Cl)c1)c1ccco1`, the IFI was determined as 0.87%.
`CC(C)C(=O)NC(c1ccc(N(C)C)cc1)c1cc(Cl)c2cccnc2c1O` (stereo not drawn): the IFI was 5.38%.
The figure for `CC1(C)NC(=N)NC(=N)N1OCC=Cc1ccccc1` is 3.57%.
As for `O=C(NCCN1CCCCC1)c1ccc(CNC(=O)c2ccc(O)c(-c3ccc(Cl)c(Cl)c3)c2)cc1`, the IFI was found to be 2.96%.
`COc1ccc(-c2nc(NC(=O)CSc3ccccc3)sc2C)cc1`: the IFI turned out to be 3.47%.
Regarding `O=C(CCCC(=O)Nc1ccc(C2=NCCN2)cc1)Nc1ccc(C2=NCCN2)cc1`, the IFI turned out to be 0%.
On to `CCN(CC)CCN(Cc1ccc(-c2ccc(C(F)(F)F)cc2)cc1)C(=O)Cn1c(CCc2ccc(F)c(F)c2F)nc(=O)c2ccc(F)cc21`, for which the IFI came to 3.01%.
For `CN(C)CC(O)C(O)(c1ccccc1)c1ccc(F)cc1` (stereo not drawn) the value was -0%; for `O=S(=O)(NCCN1CCCC1)c1ccc(-c2cccc(CNCc3ccc(F)cc3)c2)s1`, 9.65%.
For `Cc1cc(N[C@@H](Cc2ccccc2)C(=O)NCc2cccc(F)c2)nc(NCCOc2ccccc2)n1` the value was 6.98%; for `CN1CCN(CCCN(C(=O)Nc2cc(C(F)(F)F)cc(C(F)(F)F)c2)c2ccccc2Cc2ccccc2)CC1`, 10.8%.
For `CCCCCCN1CCN(Cc2cccc(NC(=O)c3cccc(OCC)c3)c2)CC1` the value was 3.52%.
For the compound `Cc1cc(OCCCN2CCC(NS(=O)(=O)c3cccc(Br)c3)C2)c2ccccc2n1` (stereo not drawn), the IFI stood at 1.72%.
`CCc1c(C)c2ccc3c(c2oc1=O)CN(CCc1ccc(F)cc1)CO3` returned an IFI of -0%.
`c1ccc(-c2ccc(CNCc3ccc(-c4cccc(-c5nc6ccccc6[nH]5)c4)cc3)s2)nc1`: the IFI was 2.86%.
`CCc1ccc(NC(=O)C=NNC(=N)N)cc1` registered an IFI of -0%.
In the case of `N=C(N)Nc1nc(-c2cccc(NC(=O)NCc3ccc(OC(F)(F)F)cc3)c2)cs1`, the IFI is 3.79%.
For `O=C(NC1CCC(N2CCN(c3cccc4[nH]ccc34)CC2)CC1)c1cc2cccnc2[nH]1` (stereo not drawn) the value was 16%; for `O=C(C=Cc1ccc(Cl)c(Cl)c1)NCCCCCN1CCC(CCCNS(=O)(=O)c2cccc(C(F)(F)F)c2)CC1`, 14.9%.
For `CCc1cc(NC2CCN(C)CC2)nc(Nc2cccc(OC)c2)n1`, the IFI came to 4.48%.
Compound `CCCNC(=O)c1ccc(N2CCC(c3ccccc3C)CC2)nc1` had an IFI of 2.13%.
The compound `Cc1[nH]c(C)c(-c2ccc(-c3cc(C(F)(F)F)cc(C(F)(F)F)c3)nc2)c(=O)c1Br` yielded an IFI of 2.68%.
For `Cc1ccc2cc(NC(=O)c3cccc(C(=O)Nc4ccc5nc(C)ccc5c4)n3)ccc2n1` the value was 0.72%; for `Cc1cnccc1/C=C/c1cccc(OCCN2CCc3ccc(S(C)(=O)=O)cc3CC2)c1`, 0%; for `CC/N=C(/NCCCCCCN/C(=N/CC)NCc1ccccc1)NCc1ccccc1`, 2.84%.
In turn, `COc1ccc(-c2ccc(NC(=O)c3cccc(C#N)c3)cc2)cc1CN1CCN(C)CC1` came in with an IFI of 4.95%.
Regarding `CNC(=O)C(NC(=O)c1ccccc1C(=O)OC)c1ccccc1` (stereo not drawn), the IFI was found to be 3.65%.
In the case of `O=c1c(NCCCN(Cc2ccc(F)cc2)c2ccccn2)c(NCc2cccnc2)c1=O`, the IFI worked out at 0.7%.
Regarding `O=C(Cc1ccc(F)cc1)NC1CCN(c2ccnc3cc(Cl)ccc23)C1` (stereo not drawn), the IFI was 1.54%.
Compound `O=S(=O)(NCCN1CCCC1)c1ccc(-c2ccc(CN3Cc4ccccc4C3)cc2)s1` displayed an IFI of 8.33%.
In turn, `CC(=O)NC(c1cccs1)c1cc(Cl)c2cccnc2c1O` (stereo not drawn) showed an IFI of 5.48%.
Compound `Cc1cc(NC(=O)c2ccc(S(=O)(=O)N(Cc3ccccc3)C(C)C)cc2)no1` yielded an IFI of 0.78%.
The compound `Nc1nccc(-c2ccc3c(/C=C/c4ccccc4)cnc(N)c3c2)n1` had an IFI of 16.2%.
For the compound `CC1(CCCCN2CCC(Oc3ccc(F)cc3F)CC2)C(=O)Nc2ccccc21` (stereo not drawn), the IFI stood at 3.62%.
Regarding `Cc1cc(N[C@@H](Cc2ccccc2)C(=O)NC2CCCC2)nc(NCCc2ccc(F)cc2)n1`, the IFI stood at 4.88%.
For the compound `O=C1Nc2ccccc2/C1=N/NC(=S)N1CCOCC1`, the IFI is 5.52%.
`Nc1ccc2[nH]cc(C3CCN(CC4CCN(C(=O)/C=C/c5ccc(Cl)c(Cl)c5)CC4)CC3)c2n1` returned an IFI of 6.62%.
Compound `Cn1nc(-c2cccc(CNCCc3cccs3)c2)c2cnc(NC3CCCC3)nc21` yielded an IFI of 7.69%.
`CS(=O)(=O)c1ccc(CCNCc2ccc(-c3ccc(CN(C(=O)C4CCCC4)C4CCN(Cc5ccccc5)CC4)cc3)nc2)cc1` returned an IFI of 4.93%.
In turn, `Cc1ccc(NC(=O)c2ccc(-c3cc4cc(Cl)c(Cl)cc4[nH]3)cc2)cc1OCCN1CCCC1` gave an IFI of 2.9%.
As for `O=C(NCc1ccc2c(c1)OCO2)c1nn(CCN2CCC(N3CCCC3)CC2)cc1-c1ccc(Cl)c(Cl)c1`, the IFI was 4.73%.
`CNCCNCc1cccc(-c2ccc(-c3nc4cccc(C)c4[nH]3)s2)c1`: the IFI came to 4%.
The figure for `CCC1CCCCN1S(=O)(=O)c1ccc(OC)c(N2CCN(C(=O)C(Cl)(Cl)Cl)CC2)c1` (stereo not drawn) is 4.58%; for `CC(=O)Nc1ccc(C(=O)Nc2cccc(-c3cccc(-c4nc5ccccc5[nH]4)c3)c2)cn1` it is 2.7%; for `Cc1nc(-c2cccc(Nc3nccc(NCC(O)c4ccccc4)n3)c2)cs1` (stereo not drawn) it is 24.1%.
For `O=C(c1cnn(-c2ccccc2)c1C(F)(F)F)N1CCN(c2ccnc3cc(Cl)ccc23)CC1` the value was 10.1%.
In turn, `O=C(CNC(=O)c1ccc(O)cc1)Nc1ccc(-c2cccc(-c3nc4cc(C(F)(F)F)ccc4[nH]3)c2)cc1` yielded an IFI of 6.36%.
As to `CC(C)CCN1CCC(Oc2ccc(NC(=O)c3ccsc3)cc2Cl)CC1`, the IFI was 4.92%.
`CC1(C)NC(N)=NC(=N)N1OCCCc1cccc(C(F)(F)F)c1` registered an IFI of 6.38%.
For `Cc1ccc(Nc2nc(N/N=C/c3ccccc3[N+](=O)[O-])nc(Nc3ccc([N+](=O)[O-])cc3)n2)cc1C` the value was 2.92%; for `N#Cc1cccc(NC(=O)Nc2cccc(-c3cccc(-c4nc5ccccc5[nH]4)c3)c2)c1`, 6%.
